The campaign covered roughly 360,000 compounds. About 16,000 (4.4%) were called active. Inconclusive means that the source gave no clear call. Such entries were picked first, then a sample of the others. Calls come from the whole dose curve; as a rule, active = well fitted inhibition curve with a large enough effect; inconclusive = small, poorly fitted or top-dose-only effect; inactive = no such curve, though single readings can be large or run the other way. Potencies of inconclusive entries are doubtful fits and often do not repeat.
biological target: Bromodomain adjacent to zinc finger domain protein 2B (Homo sapiens) (UniProt Q9UIF8); assay: qHTS Assay for Inhibitors of BAZ2B; details: AlphaScreen BAZ2B-H3K14Ac peptide displacement; series mostly up to 114 µM; note: nearly all actives have a fitted effect of over 60% in size
In short: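 Inhibition is scored as reduced AlphaScreen emission. The BAZ2B/b-H3(5-23)K14Ac complex (50 nM each) in PBS pH 7.4, 0.01% Tween-20 meets compound (up to 110 uM) for 30 min at RT before bead addition.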
Potency is the fitted concentration of half-maximal effect; tags give direction and shape of the fitted curve.

Chain of UniProt Q9UIF8 (Q9UIF8 whole entry, looked up, the tested form may be a part): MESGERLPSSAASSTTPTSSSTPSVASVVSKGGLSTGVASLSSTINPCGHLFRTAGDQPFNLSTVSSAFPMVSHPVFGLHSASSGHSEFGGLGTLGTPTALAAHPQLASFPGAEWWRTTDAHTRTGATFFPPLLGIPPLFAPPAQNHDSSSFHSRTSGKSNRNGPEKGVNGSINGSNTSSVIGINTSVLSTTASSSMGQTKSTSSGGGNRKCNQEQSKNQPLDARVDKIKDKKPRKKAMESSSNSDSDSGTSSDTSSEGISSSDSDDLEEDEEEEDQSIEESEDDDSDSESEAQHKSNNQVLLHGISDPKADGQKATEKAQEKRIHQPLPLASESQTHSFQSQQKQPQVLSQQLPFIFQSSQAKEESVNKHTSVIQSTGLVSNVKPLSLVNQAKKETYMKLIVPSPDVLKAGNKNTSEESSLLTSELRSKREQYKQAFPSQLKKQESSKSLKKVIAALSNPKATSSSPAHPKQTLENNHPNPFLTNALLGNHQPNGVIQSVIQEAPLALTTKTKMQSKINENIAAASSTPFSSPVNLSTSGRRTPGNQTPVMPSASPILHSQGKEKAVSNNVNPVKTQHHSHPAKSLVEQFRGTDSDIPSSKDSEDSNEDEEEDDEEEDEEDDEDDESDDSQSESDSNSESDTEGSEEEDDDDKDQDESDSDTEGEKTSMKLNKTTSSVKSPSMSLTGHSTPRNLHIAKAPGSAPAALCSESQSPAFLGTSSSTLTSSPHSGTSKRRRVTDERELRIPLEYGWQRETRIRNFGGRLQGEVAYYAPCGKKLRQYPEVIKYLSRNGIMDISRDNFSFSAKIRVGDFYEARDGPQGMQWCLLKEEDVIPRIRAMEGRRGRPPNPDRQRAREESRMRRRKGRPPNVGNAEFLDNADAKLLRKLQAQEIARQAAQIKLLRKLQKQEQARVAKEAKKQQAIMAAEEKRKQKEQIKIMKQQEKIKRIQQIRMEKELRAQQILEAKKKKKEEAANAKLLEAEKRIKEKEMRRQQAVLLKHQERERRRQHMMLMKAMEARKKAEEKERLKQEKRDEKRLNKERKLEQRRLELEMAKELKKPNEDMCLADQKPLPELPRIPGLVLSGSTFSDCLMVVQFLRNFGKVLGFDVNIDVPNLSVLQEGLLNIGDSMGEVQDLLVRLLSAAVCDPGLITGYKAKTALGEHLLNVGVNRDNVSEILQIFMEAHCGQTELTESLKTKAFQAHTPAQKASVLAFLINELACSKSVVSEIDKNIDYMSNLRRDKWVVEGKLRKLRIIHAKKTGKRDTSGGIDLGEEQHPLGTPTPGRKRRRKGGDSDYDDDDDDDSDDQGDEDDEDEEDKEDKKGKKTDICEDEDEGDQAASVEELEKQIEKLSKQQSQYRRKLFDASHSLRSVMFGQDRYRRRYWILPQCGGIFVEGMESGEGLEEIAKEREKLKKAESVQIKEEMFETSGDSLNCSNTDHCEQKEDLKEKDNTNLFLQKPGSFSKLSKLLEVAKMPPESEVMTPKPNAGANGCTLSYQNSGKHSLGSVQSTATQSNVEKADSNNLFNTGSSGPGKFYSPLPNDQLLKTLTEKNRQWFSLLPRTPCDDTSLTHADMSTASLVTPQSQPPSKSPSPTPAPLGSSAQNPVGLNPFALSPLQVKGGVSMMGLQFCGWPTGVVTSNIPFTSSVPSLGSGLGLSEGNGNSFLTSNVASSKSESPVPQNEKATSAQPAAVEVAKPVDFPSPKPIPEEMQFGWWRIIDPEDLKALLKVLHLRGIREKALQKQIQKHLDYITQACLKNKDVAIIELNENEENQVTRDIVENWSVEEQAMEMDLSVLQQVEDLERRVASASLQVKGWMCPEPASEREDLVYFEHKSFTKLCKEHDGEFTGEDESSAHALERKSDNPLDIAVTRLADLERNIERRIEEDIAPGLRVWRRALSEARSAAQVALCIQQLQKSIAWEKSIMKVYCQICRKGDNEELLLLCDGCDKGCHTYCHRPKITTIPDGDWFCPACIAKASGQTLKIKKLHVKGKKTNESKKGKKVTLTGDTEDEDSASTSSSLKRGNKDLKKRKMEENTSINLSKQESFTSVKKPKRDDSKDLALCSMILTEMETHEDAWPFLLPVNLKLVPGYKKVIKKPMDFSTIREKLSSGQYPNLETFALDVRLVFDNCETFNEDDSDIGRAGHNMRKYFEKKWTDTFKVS

SMILES	Potency
CCOC(=O)NC(=O)/C(C#N)=N\Nc1cccc(Cl)c1	inconclusive: 35.5 µM [inhibitor, partial curve]
COc1ccc(S(=O)(=O)NNC(=O)C(=O)NNc2ccccn2)cc1	inconclusive: 89.1 µM [inhibitor, single point]
O=c1[nH]c(/C=C\c2ccc(O)c(Cl)c2)nc(O)c1[N+](=O)[O-]	inactive
Cc1sc2nc(SCC(=O)NCc3ccco3)n(C)c(=O)c2c1C	inactive
COc1ccc(CN2CCN(c3ncnc4scc(-c5ccc(F)cc5)c34)CC2)cc1	inconclusive: 28.2 µM [inhibitor, full curve]
CC(CCc1ccccc1)N1CCN(Cc2ccccc2)CC1 (stereo unspecified)	active: 50.1 µM
Cc1ccc(S(=O)(=O)Nc2ccc(N3CCCCC3)cc2)cc1	active: 35.5 µM
Cc1nn(-c2ccccc2)c2sc(C(=O)Nc3cccc(Br)c3)cc12	inactive
CCCCNc1c(-c2ccc(SC(C)CC)c(OC)c2)nc2ccc(C)cn12 (stereo unspecified)	active: 50.1 µM
Cc1ccc(S(=O)(=O)N2CCN(CC(=O)Nc3ccc(N4CCOCC4)cc3)CC2)cc1C	inconclusive: 89.1 µM [inhibitor, single point]
CN1C(=O)CSc2ccc(NC(=O)NCc3ccco3)cc21	inconclusive: 7.08 µM [inhibitor, full curve]
CCc1nc(NCc2ccccn2)c2oc3ccccc3c2n1	inconclusive: 89.1 µM [inhibitor, single point]
CCCCC1=CC2=C(c3ccco3)C(=O)C(C)(OC(=O)c3ccc(OC)cc3)C(=O)C2=CN1C1CC1 (stereo unspecified)	inconclusive: 31.6 µM [inhibitor, partial curve]
N/C(=N\OC(=O)CCC1CCCCC1)c1ccc([N+](=O)[O-])cc1	inconclusive: 44.7 µM [inhibitor, partial curve]
Cc1c(CN2CCC(CO)(Cc3cccc(C(F)(F)F)c3)CC2)c2ccccc2n1C	inconclusive: 56.2 µM [inhibitor, partial curve]
CN1COc2ccc3ccccc3c2C1	inconclusive: 31.6 µM [inhibitor, partial curve, poor fit]
Cc1ccc(/C=C/C(=O)O)cc1S(=O)(=O)NCCO	inactive
O=C(NCc1cccs1)c1ccccc1	inconclusive: 89.1 µM [inhibitor, single point]
O=Nc1ccc(NOC(=O)c2ccccc2Br)cc1	inconclusive: 89.1 µM [inhibitor, single point]
CCOC(=O)c1ccc(N2C(=O)C(O)=C(C(C)=O)C2c2ccccn2)cc1 (stereo unspecified)	inconclusive: 89.1 µM [inhibitor, single point]
COc1c(Cl)ccc(Cl)c1C(=O)NC(=S)N1CCOCC1	inconclusive: 89.1 µM [inhibitor, single point]
O=[N+]([O-])c1ccc2nonc2c1Nc1ccccc1	inconclusive: 3.16 µM [inhibitor, full curve]
Cc1cc(C)n(C(=O)N(c2ccccc2)c2ccccc2)n1	inactive

SMILES	Potency
Cn1c(SCC(=O)Nc2nncs2)nnc1C1CC1	active: 50.1 µM
O=C(Nc1nc(-c2ccccn2)cs1)c1ccc2c(c1)OCCO2	active: 22.4 µM
COc1ccc(N2C(=O)N(Cc3cccc(F)c3)c3ccccc3S2(=O)=O)cc1	inactive
CCC(CO)Oc1cc(NC(=O)c2ccc(C)cc2)c2ncn(C(C)C)c2c1 (stereo unspecified)	inconclusive: 89.1 µM [inhibitor, single point]
Cc1nn(-c2ccccc2)c(C)c1/C=N/n1c(-c2ccc(C(C)(C)C)cc2)n[nH]c1=S	inconclusive: 44.7 µM [inhibitor, partial curve]
OC(CNCC1COc2ccccc2O1)COCc1cccs1 (stereo unspecified)	active: 89.1 µM
CC(C)CC(NC(N)=O)C(=O)OCC(=O)NC(=O)NC1CCCC1 (stereo unspecified)	inactive
COC(=O)Nc1ccc2c(c1)N(C(=O)CCN1CCOCC1)c1ccccc1S2	inconclusive: 89.1 µM [inhibitor, single point]
Clc1ccc(-c2nnc(-c3ccco3)nc2N2CCCCC2)cc1	active: 50.1 µM
COc1ccccc1N1CCN(CCCn2c(=S)[nH]c3ccccc3c2=O)CC1	inconclusive: 70.8 µM [inhibitor, single point]
CCOc1ccc(NC(=O)CCSc2nc(-c3ccc4c(c3)OCO4)cc(C(F)(F)F)n2)cc1	inactive
COc1cc(C2C(C#N)=C(N)Oc3c2c(-c2ccccc2)nn3-c2ccccc2)cc(OC)c1OC (stereo unspecified)	active: 44.7 µM
COc1ccc(OC)c(NC(=O)N2CCN(Cc3nc4ccc(C)cc4o3)CC2)c1	inconclusive: 89.1 µM [inhibitor, single point]
COc1ccc(CCNc2nc3cc(OC)c(OC)cc3c3nc(-c4cccnc4)nn23)cc1OC	inactive
COc1ccccc1-c1cc(C(=O)N/N=C/c2ccoc2)c2ccccc2n1	inconclusive: 35.5 µM [inhibitor, partial curve]
O=S(=O)(c1ccccc1)c1nc(-c2ccccc2F)oc1N1CCOCC1	inconclusive: 39.8 µM [inhibitor, partial curve]
Cc1ccc(-n2c(SCC(=O)Nc3ccc4c(c3)OCCO4)nnc2-c2ccco2)cc1	inconclusive: 44.7 µM [inhibitor, partial curve]
Cc1cccc(-c2nn(-c3ccccc3)cc2C(=O)N(C)CC(=O)Nc2ccc(N3CCOCC3)cc2)c1	inconclusive: 89.1 µM [inhibitor, single point]
Cc1ccc(S(=O)(=O)NNC(=O)Cc2cccn2C)cc1	inconclusive: 89.1 µM [inhibitor, single point]
Cc1cc2oc(=O)c3c(c2cc1OCc1nn[nH]n1)CCCC3	inconclusive: 89.1 µM [inhibitor, single point]
CC1(C)OC(c2ccccc2)=C/C(=C\C=N\NC(=O)c2ccncc2)O1	active: 70.8 µM
Nc1c(C(=O)c2ccccc2)sc(Nc2ccc(Cl)c(Cl)c2)c1C(=O)Nc1ccccc1	active: 25.1 µM
Cc1cc(C(=O)CSc2ccc(F)cc2)cc(C)c1OC(=S)N(C)C	inconclusive: 12.6 µM [inhibitor, single point]

— PubChem BioAssay AID504333 (National Center for Advancing Translational Sciences (NCATS), 2011)
